Laboratory results as given in the RNAGym collection of RNA variant scans (doi:10.7554/elife.90254).
Read counts are not given, so values of variants with three or more changes are uncertain.

B1: LINE1-mini (parent)
chain: GGCAGAGCUCAACACAGCGUGGCAAAGUGGCUGUGGCUAGACUGCC

Variants of: B1
Assay: self-cleavage, relative activity (ratio to wild type); higher = more cleavage; in vitro, sequencing; the parent is a self-cleaving ribozyme
Work on G5U A6C U38A G44A yielded a self-cleavage of 0.02. Work on A4G A12C U32G yielded a self-cleavage of 0.01. In the case of G1A G33A C46U, the self-cleavage is reported as 0.06. C10A A12C C15A G22C gave a self-cleavage of 0. G17A C23A A24U A39G G44C C46A showed a self-cleavage of 0.01. For G7C C15U A26G U34G, the self-cleavage was 0.01. In the case of C15G A25G A26U U28C, the self-cleavage is reported as 0.15. Variant G1C G30A G44U has a self-cleavage of 0.03. In the case of G7U C8G G17C A25G, the self-cleavage is reported as 0.09. With C8G A25G G30C U38A A39U the self-cleavage was 0.03. For G1A A11G C15U C18G G33U U38G, the self-cleavage was 0.03. Variant C15U A24U U38G G44C has a self-cleavage of 0.06. For G19U G22C G33A, the self-cleavage was 0.23. For C10A G17A C31U, the self-cleavage was 0.04. Variant C13U A25C A39C G44C has a self-cleavage of 0.02. For C3G C13G C18G U34A, the self-cleavage was 0.12. Variant G27C C31A C46U has a self-cleavage of 0. Work on C3A A12C U32A yielded a self-cleavage of 0.06. In the case of C3A G7U C13U, the self-cleavage is reported as 0.31. C8G C13U U20A U34A showed a self-cleavage of 0.02. Work on G22A A25C G27U G40U yielded a self-cleavage of 0.08. Work on U9G C15U G35A U43C yielded a self-cleavage of 0.03. For A4U G7C G33C G44C C45A, the self-cleavage was 0.01. Variant G5U U9C C18G has a self-cleavage of 0.01. Variant C23U C31G G35A C45U has a self-cleavage of 0.07. Work on C10U G19C C42U yielded a self-cleavage of 0.01. Work on C3U C10U A16C G22C A24U C31U A39C G40C C45A yielded a self-cleavage of 0.01. G7U C10A C18G U20G G30C A39G showed a self-cleavage of 0. In the case of A6G C10A C15G C23U A25C G30U A39U G44U, the self-cleavage is reported as 0. Variant G1C G22C G44U has a self-cleavage of 0.01. Variant G7A C15A G17U G35A has a self-cleavage of 0.07. Variant G1U C15A A16G A25U has a self-cleavage of 0.02. G5C C10U C13G C18G U28C U34G gave a self-cleavage of 0.03. With G2C A6C C10A C37U U38G the self-cleavage was 0. Variant U20G U28C G29U C31U A39C has a self-cleavage of 0.21. With A26U C37U C46G the self-cleavage was 0.02. With G1A G33A A39U the self-cleavage was 0.07. Work on C3A A6C U38C yielded a self-cleavage of 0.22. Work on G5C G17U C23A U38C A39U yielded a self-cleavage of 0.03. Variant C8G U9C C10A C15G C18A has a self-cleavage of 0.01. With G2C C18U G33A the self-cleavage was 0.05. A14C G19A U20G A39G showed a self-cleavage of 0.05. For G1A G27A G36U A41G, the self-cleavage was 0.09. In the case of C3U G5U A24U, the self-cleavage is reported as 0.08. For A25U U28C U32A, the self-cleavage was 0.21. Variant A16U G19C G22A has a self-cleavage of 1.82. C3G A16G C18G showed a self-cleavage of 0.1. In the case of C3A G21C G27U G30U, the self-cleavage is reported as 0.59. U20A G36U G44C gave a self-cleavage of 0.18. U9C A24C U32A C42U U43A showed a self-cleavage of 0. A14C G17U A26U U32C G35C G40U showed a self-cleavage of 0.2. Work on A4U C13A G29U G30U C37U C42U yielded a self-cleavage of 0.12. In the case of C3A G19A U20G G21C C37A, the self-cleavage is reported as 0.04. With G2U C3U A11G A24U A26G G40U C46G the self-cleavage was 0.02. A12U G29C G40C C46A showed a self-cleavage of 0. A16U A25G A26C gave a self-cleavage of 0.06. Variant G2U G19U A39C A41G has a self-cleavage of 0.01. G7A C10U A25U G27A G44U C45G showed a self-cleavage of 0.02. In the case of A12C G19A C23G A39G, the self-cleavage is reported as 0.01. A26U G30U U34A gave a self-cleavage of 0.01. With G2A C3A G22A U43C the self-cleavage was 0.54. In the case of A4G A6U A14U, the self-cleavage is reported as 0.22. With A11U C13A G29C the self-cleavage was 0.01. In the case of A12G A14C G22U U34A, the self-cleavage is reported as 0.03. In the case of C8U U9A C15U G19U G22A U34A G35U U43A G44U, the self-cleavage is reported as 0.14. G5C U9C A12U G17U A41C gave a self-cleavage of 0.02. For G2U C18A A25U G30A U38C, the self-cleavage was 0.01. For C3A C10U G27A U32A, the self-cleavage was 0.1. Work on C13A G21U G33C U38C yielded a self-cleavage of 0.02. Work on A11G U38G A39U yielded a self-cleavage of 0.01. With A11U G27U G29U the self-cleavage was 0.09. In the case of C31A A39G A41U, the self-cleavage is reported as 0.02. With G1C C3U G7A A26U G40C the self-cleavage was 0.43. Variant C15U A16C G35U A39C has a self-cleavage of 0.02. C10U G17U U34A gave a self-cleavage of 0.06. In the case of G7C A11C G27U, the self-cleavage is reported as 0.01. Variant G7U C13A C31A C42U C46U has a self-cleavage of 0.1. For C8A U32A G33A G44C, the self-cleavage was 0.02. With G7A C23G A24C G33A G35C G44U the self-cleavage was 0.05. In the case of A25C U32C G36A, the self-cleavage is reported as 0.01. A14G G36A G40C gave a self-cleavage of 0.01. For G21U A26C G33C, the self-cleavage was 0.04. C3G G7C C18A U34G showed a self-cleavage of 0.03. Variant G7U C37G U43A has a self-cleavage of 0.02. C3U G21A G35A showed a self-cleavage of 0.24. For G2U C18A U43C, the self-cleavage was 0.02. Work on G22C G35C U43G yielded a self-cleavage of 0.04. C3A C23A G35C showed a self-cleavage of 1.75. G7U C18A U20C gave a self-cleavage of 0.03. Variant G7U C8G C31U has a self-cleavage of 0.13. Work on C10G A25C G27U C42A yielded a self-cleavage of 0.01. With G7C G21A G40A C46A the self-cleavage was 0.32. In the case of A26C C42G U43C, the self-cleavage is reported as 0.02. With C3A G5U G7U C37G the self-cleavage was 0.14. Work on C18U G27C U32A U38C G44U yielded a self-cleavage of 0.02. A16G G17U G21C C23A gave a self-cleavage of 0.06. In the case of G17C G22C U34G C37A A39G, the self-cleavage is reported as 0.03. Variant A4G C8A A26C U32A has a self-cleavage of 0.1. G29U G30C C42U C45U showed a self-cleavage of 0.05. For G5A A14U C18U G22A C23A U28C C31G, the self-cleavage was 0.03. U20A A39C G44U gave a self-cleavage of 0.03. G29C U32A U34G gave a self-cleavage of 0.05. G30C G35A U38C showed a self-cleavage of 0.16. For G19A C31U U38G, the self-cleavage was 0.03. With A11U U20G G21U C31G the self-cleavage was 0.01. Work on C3U C8A A16G C42A yielded a self-cleavage of 0.06. In the case of G2A C37U G44C, the self-cleavage is reported as 0.06. U9G C18A G33U gave a self-cleavage of 0.04. With G7A U9A C15U G21A G27U A39G C42U the self-cleavage was 0.7. In the case of G5A A14C U20G G21A C23G, the self-cleavage is reported as 0.1. With C3U G27A U32A the self-cleavage was 0.2. Variant C3U G19U G40A has a self-cleavage of 0.16. Variant U9A C15A G21U G27A C31U U38C has a self-cleavage of 0.05. With U20C G29A G33A G44A the self-cleavage was 0.08. Variant A16U C18U G36U C46A has a self-cleavage of 0.02. G7C G29A G33A gave a self-cleavage of 0.01. In the case of G2A U9C C18G G22U C31U G36C, the self-cleavage is reported as 0.01. Variant A12U U34G G40U has a self-cleavage of 0.04. In the case of A14U U28A G33C U43A, the self-cleavage is reported as 0. In the case of A4G G7A U38G A39G C42A, the self-cleavage is reported as 0.02. U20G G21C G27C showed a self-cleavage of 0.1. In the case of G2C A11U U20A C46A, the self-cleavage is reported as 0.01. Variant A6U G19A A25G C37A has a self-cleavage of 0.12. Variant G5U C18G U32C C45G has a self-cleavage of 0. In the case of G2U A4C C46U, the self-cleavage is reported as 0.1. G5U C10A A26C showed a self-cleavage of 0.01. G5C U32G A39C gave a self-cleavage of 0.08. A6C A12G G19C gave a self-cleavage of 0.07. With C18U G19A A26G the self-cleavage was 2.66. For C8U U9G G27A G29U A41C, the self-cleavage was 0.05. Variant C13G U32G C42A has a self-cleavage of 0.03. With G1U A25C G40C G44C the self-cleavage was 0.01. Work on G5U U9G G21U yielded a self-cleavage of 0.03. In the case of U9G C18A C23U, the self-cleavage is reported as 0.07. For C8U U43C G44A C45A, the self-cleavage was 0.02. Variant G17C A25G G33U A39U has a self-cleavage of 0.04. A6G A12G C18U C23U gave a self-cleavage of 0.01. With C8U U38C C46A the self-cleavage was 0.77. For C10A G21U A24C, the self-cleavage was 0.04. Work on G1A G5U G7A A11C G27C G40U yielded a self-cleavage of 0.02. Variant G2U G21C A26U has a self-cleavage of 0.38. C23A U38C G40C showed a self-cleavage of 0.02. For A4C A11U U28C A41C, the self-cleavage was 0.01. G5A C31A C45U gave a self-cleavage of 0.03. Variant C10G A16G A24U G35U has a self-cleavage of 0.02. Variant A6U G22C G33U U38A has a self-cleavage of 0.14. Work on C13G G29A C42U U43G G44U yielded a self-cleavage of 1.22. Work on A16U U28C G36U yielded a self-cleavage of 0.09. Variant G7A C8U U9G A39C has a self-cleavage of 0.55. With C10U G19U U34C the self-cleavage was 0.24. Work on A25C A26C G36A G44U yielded a self-cleavage of 0.25. For C10G A14G C18G, the self-cleavage was 0.01. Work on C3G C18U G33U C37A U38C G44U yielded a self-cleavage of 0.03. G17A A24G A41G gave a self-cleavage of 0.01. G2A C15U G21U G33C showed a self-cleavage of 0.02. C31A G33U C42U gave a self-cleavage of 0.02. With U20A C23A G40U C45U the self-cleavage was 0.04. With C15U G27C U28A C42A the self-cleavage was 1.96. Work on G7U C23U U38C C45G yielded a self-cleavage of 0.27. Variant C13G C18U G33U has a self-cleavage of 0. With A4C C13A C15U C42U the self-cleavage was 0.8. For A14C G22U A24G, the self-cleavage was 0.12. Variant C13A A16U G22A has a self-cleavage of 0.1. With C8U G36C A41G the self-cleavage was 0.46. With C3A U20C G22U the self-cleavage was 0.71. In the case of C15A G21U G30U C46A, the self-cleavage is reported as 0.03. A4G A6G A24U G30U gave a self-cleavage of 0.09.
